Results: publication PMC4336329 (PLoS ONE, 2015)
Out of some 310,000 compounds screened, about 2,200 (0.71%) showed an effect of 50% or more. Effects have a minus sign here. Some of the results follow.

Molecular target: human ether-à-go-go-related gene (hERG) potassium channel (human, UniProt Q12809)
Test: primary screen, population patch clamp on CHO cells stably expressing hERG

human ether-à-go-go-related gene (hERG) potassium channel, sequence (Q12809 whole entry, looked up): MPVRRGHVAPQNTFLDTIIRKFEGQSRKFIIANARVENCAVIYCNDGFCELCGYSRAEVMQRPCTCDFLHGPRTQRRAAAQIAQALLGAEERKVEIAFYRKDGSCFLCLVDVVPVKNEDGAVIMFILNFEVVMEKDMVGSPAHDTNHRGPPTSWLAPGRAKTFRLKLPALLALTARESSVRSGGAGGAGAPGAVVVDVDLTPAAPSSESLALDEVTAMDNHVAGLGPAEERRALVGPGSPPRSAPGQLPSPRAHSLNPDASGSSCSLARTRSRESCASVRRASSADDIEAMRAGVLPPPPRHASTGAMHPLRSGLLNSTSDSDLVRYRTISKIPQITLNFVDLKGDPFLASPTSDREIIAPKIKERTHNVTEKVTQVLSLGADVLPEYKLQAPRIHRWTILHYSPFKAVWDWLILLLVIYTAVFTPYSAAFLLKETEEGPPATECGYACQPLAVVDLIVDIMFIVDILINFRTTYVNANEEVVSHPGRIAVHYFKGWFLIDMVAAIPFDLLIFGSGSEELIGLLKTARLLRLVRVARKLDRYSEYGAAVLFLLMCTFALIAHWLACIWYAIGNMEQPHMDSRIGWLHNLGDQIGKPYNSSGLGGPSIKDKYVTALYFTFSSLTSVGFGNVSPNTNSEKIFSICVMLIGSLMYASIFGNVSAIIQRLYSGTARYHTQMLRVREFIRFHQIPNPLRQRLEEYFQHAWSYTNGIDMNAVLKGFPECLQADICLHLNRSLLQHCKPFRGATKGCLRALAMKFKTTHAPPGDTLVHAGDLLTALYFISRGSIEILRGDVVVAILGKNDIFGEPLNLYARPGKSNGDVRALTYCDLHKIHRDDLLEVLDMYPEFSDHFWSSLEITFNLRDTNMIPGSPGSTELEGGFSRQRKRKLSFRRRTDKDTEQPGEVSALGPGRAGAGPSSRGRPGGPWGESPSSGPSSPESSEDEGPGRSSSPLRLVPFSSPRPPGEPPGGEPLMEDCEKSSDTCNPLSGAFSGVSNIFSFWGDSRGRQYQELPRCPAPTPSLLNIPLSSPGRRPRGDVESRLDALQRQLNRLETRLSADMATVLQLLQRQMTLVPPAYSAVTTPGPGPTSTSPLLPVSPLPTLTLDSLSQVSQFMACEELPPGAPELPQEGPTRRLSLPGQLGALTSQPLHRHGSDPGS

Row | SMILES | hERG current change (%, negative = inhibition) at 1uM
1 | C/C(=N\NC(=O)c1ccc(-n2cnnn2)cc1)c1ccc(Cl)cc1 | 3.65%
2 | Fc1ccc(NC(=S)N/N=C/c2ccc(F)c(F)c2)cc1 | 9.19%
3 | CCCCN(C)CCNC(=O)CCn1nc(-c2ccc(Cl)cc2)ccc1=O | -11.9%
4 | O=C(Nc1ccc(S(=O)(=O)Nc2ncccn2)cc1)C1COc2ccccc2O1 (stereo not shown) | 7.4%
5 | COc1ccccc1NC(=O)C1CCC(CNc2c(N3CCCCC3)c(=O)c2=O)CC1 (stereo not shown) | 16.7%
6 | COc1cccc2sc(Nc3nc(-c4ccccn4)cs3)nc12 | 16%
7 | Cc1cc(C)c(S(=O)(=O)Nc2ccc(Cl)cn2)c(C)c1 | 5.16%
8 | CCCCC1OC23CCCCC2C(C#N)(C#N)C1(C#N)C(=N)O3 (stereo not shown) | 6.89%
9 | Brc1cccc(-c2cnco2)c1 | 5.28%
10 | COc1ccc(-c2c(C#N)c(N)nc3c2c(=O)n(C)c(=O)n3C)cc1 | 6.42%
11 | O=C(NCC(c1cccnc1)N1CCN(c2ccccc2F)CC1)C1CCCCC1 (stereo not shown) | -3.18%
12 | COc1ccccc1S(=O)(=O)c1c(C)cc(C)[nH]c1=O | 13.6%
13 | CC(=O)c1ccc(NC(=O)c2ccc(C)c(S(=O)(=O)N3CCOCC3)c2)cc1 | 12.1%
14 | O=C(N/C(=C/c1ccccc1)C(=O)N1CCCCC1)c1ccc(Br)o1 | -0.572%
15 | COCCN1C(=O)N[C@@H](c2ccccc2)C(C(=O)OC)=C1C | 13.2%
16 | COc1ccc(C(=O)COC(=O)CNC(=O)c2ccc(Cl)cc2Cl)c(OC)c1 | 14.3%
17 | COc1ccc(N2C(N)=NC(N)=NC2(C)C)cc1.Cl | 9.23%
18 | COc1cc(/C=N/N=C(/C(=O)c2ccccc2)c2ccccc2)cc(OC)c1O | 12.1%
19 | O=C(NCCCN1CCOCC1)c1ccc(CS(=O)(=O)Cc2ccc(Cl)cc2)o1 | 6.42%
20 | COc1ccc(C2CC(=O)c3sc(N)nc3C2)cc1 (stereo not shown) | 14.8%
21 | CCCNC(=O)C(Cc1ccccc1C)NC(=O)c1ccc(C#N)cc1 (stereo not shown) | 19%
22 | CCn1nc(C)c(CNC(=O)CC2C(=O)NCCN2CC(C)C)c1C (stereo not shown) | 11.8%

Row | SMILES | hERG current change (%, negative = inhibition) at 1uM
23 | Cc1c(C(=O)Nc2ccccn2)oc2c(Cl)cccc12 | 11.4%
24 | CCC(C)c1ccc(NC(=S)NC(C)C2CCCO2)cc1 (stereo not shown) | 0.4%
25 | S=C(Nc1ccc(Br)cc1)N1CCCC1 | 7.68%
26 | Nc1c(C(=O)OCC2CCCO2)c2nc3ccccc3nc2n1C1CCCC1 (stereo not shown) | 5.99%
27 | O=C(O)c1ccc(-c2nnn(Cc3ccccc3F)n2)cc1 | 33.7%
28 | CC(C(=O)c1ccccc1)N1C(=O)c2ccccc2C1=O (stereo not shown) | 11.9%
29 | CC(C)CC(=O)Nc1cccc(C(=O)Nc2ccccc2C(=O)O)c1 | -1.97%
30 | CN(CCOc1ccc(Cl)c(Cl)c1)Cc1ccccc1.O=C(O)C(=O)O | 19.7%
31 | O=C(Nc1ccc(C(=O)N2CCCC2)cc1)c1ccc(F)cc1Cl | 9.39%
32 | Cc1ccc(C)c2[nH]c(=O)c(CN(CC3CCCO3)C(=O)NC3CCCCC3)cc12 (stereo not shown) | 11.2%
33 | COc1cc2[nH]c(C(=O)N(C)C3CCS(=O)(=O)C3)cc2c(OC)c1OC (stereo not shown) | 12.1%
34 | COC(=O)c1ccc(CN2CCN(Cc3ccc(F)cc3)C(CCO)C2)cc1 (stereo not shown) | 16.6%
35 | O=C(COc1ccc(Br)cc1)Nc1ccc(N2CCOCC2)cc1N1CCOCC1 | 1.83%
36 | CCOc1cc(C(=O)NCc2ccco2)cc(OCC)c1OCC | -3.65%
37 | COc1ccc(-c2cc(C(=O)OCC(=O)c3cccc([N+](=O)[O-])c3)c3cc(C)ccc3n2)cc1 | 9.31%
38 | CC(=O)c1cccc(NC(=O)C2=CC(c3ccc4c(c3)OCO4)=NS(=O)(=O)N2C)c1 | 14.9%
39 | Cc1ccc(NC(=O)CN(C)C(=O)c2ccc(S(=O)(=O)N(C)c3ccccc3)cc2)cc1 | 11.1%
40 | Cc1csc(OCc2ccc(C#N)cc2)n1 | 0.531%
41 | Cc1ccc(S(=O)(=O)N2CCOCC2)cc1C(=O)NC1CCCC(C)C1C (stereo not shown) | -6.75%
42 | COc1cc(C)c(/C=C(\C#N)C(=O)Nc2cccc(C)c2)cc1C(C)C | -1.75%
43 | COc1cccc(-n2c(SCC(=O)Nc3cc(C)on3)nc3ccccc3c2=O)c1 | -8.56%
